Data published in the RNAGym collection of RNA variant scans (doi:10.1073/pnas.2313332121).
This sample is rich in variants without activity.

B1: TPR 5TU (parent)
chain: GGAUCUUCUCGAUCUAACAAAAAAGACAAAUCUGCCACAAAGCUUGAGAGCAUCUUCGGAUGCAGAGGCGGCAGCCUUCGGUGGCGCGAUAGCGCCAACGUUCUCAACUAUGACACGCAAAACGCGUGCUCCGUUGAAUGGAGUUUAUCAUG

Variants of: B1
Assay: polymerase ribozyme fitness, log enrichment relative to wild type (log ratio); higher = more active; in vitro selection for triplet polymerase activity
Procedure, shortened: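 Both subunits of a heterodimeric triplet polymerase ribozyme were given their own mutant library, built by PCR and transcribed. Each library was annealed with a biotinylated primer, the partner subunit and triplets, incubated frozen at −7 °C, and its extended constructs gel-excised, captured on streptavidin beads and amplified by RT-PCR, all in one round done in triplicate. Fitness is the logarithm of genotype enrichment relative to wild-type enrichment, with replicates averaged by inverse-variance weighting. That logarithm is base 2, and Illumina-sequenced genotypes needed ≥10 input reads and ≥1 read per output.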

Point of comparison: G48A G50C, “polymerase ribozyme fitness (log ratio)” value -3.83. Against it:
- G48A A52C G84U C87U C105A — lower, ≤ -4.2
- G48A A52G C116U — higher, -0.319
- G48A A52U G86U — lower, ≤ -4.2
- G48A A52U U56A U78A A98U U139C — lower, ≤ -4.2
- G48A A60G A98G G143C U151G — lower, ≤ -4.2
- G48A A60G G84U — higher, -1.73
- G48A A60U C79G U90G A142C — lower, ≤ -4.2
- G48A A110U U145G — lower, ≤ -4.2
- G48A A113G A147G G152C — lower, ≤ -4.2
- G48A A137G C149U — within 0.2 log units, -3.82
- G48A A150U — higher, -0.592
- G48A C51U C54A U82G A120U — within 0.2 log units, -3.66
- G48A C54U G59C G70C G92U — lower, ≤ -4.2
- G48A C54U G94C — higher, -1.21
- G48A C57A — higher, 0.284
- G48A C57A G84A U101A U135C — lower, ≤ -4.2
- G48A C57G G83C C87G U102A G112C A119C — lower, ≤ -4.2
- G48A C63U G65C C76U A122G G124A — lower, ≤ -4.2
- G48A C69G C75G G92U — lower, ≤ -4.2
- G48A C76A C85U C87U C93A — lower, ≤ -4.2
- G48A C76G — lower, ≤ -4.2
- G48A C76G U102G — lower, ≤ -4.2
- G48A C85A C123U U134C — higher, -1.46
- G48A C85U C95G C96A — lower, ≤ -4.2
- G48A C85U C95G C103U G124U C132A G143A — lower, ≤ -4.2
- G48A C87A C103U C123A U127A — lower, ≤ -4.2
- G48A C87U A91U C93U — lower, ≤ -4.2
- G48A C93G — within 0.2 log units, -3.69
- G48A C96A — higher, -1.51
- G48A C103A — higher, -1.74
- G48A C103G C105G — lower, ≤ -4.2
- G48A C125U — higher, -0.97
- G48A C125U G133A — lower, ≤ -4.2
- G48A G50A G88U — lower, ≤ -4.2
- G48A G50C U55C G59U U61A G83U G140C — lower, ≤ -4.2
- G48A G58C A89U A115U C116U U139C — lower, ≤ -4.2
- G48A G58C A91C — lower, ≤ -4.2
- G48A G58C C95U G152C — lower, ≤ -4.2
- G48A G59C — higher, -0.874
- G48A G62A A73U A91G C95G U139A A142C — lower, ≤ -4.2
- G48A G62A C96G C105A — lower, ≤ -4.2
- G48A G65A C87A A89G — lower, ≤ -4.2
- G48A G65C A73G C85G — lower, ≤ -4.2
- G48A G67U A91C C96G C116U G124A — lower, ≤ -4.2
- G48A G67U G84U C105G — lower, ≤ -4.2
- G48A G71A A91G U102C — lower, ≤ -4.2
- G48A G83A C95U U127G — lower, ≤ -4.2
- G48A G83U U134C — higher, -1.42
- G48A G86A A89C G94A U151G — lower, ≤ -4.2
- G48A G86C C123A C125G — within 0.2 log units, -3.94
- G48A G86C U101G A121G — lower, ≤ -4.2
- G48A G86U A110U A147U A150U — lower, ≤ -4.2
- G48A G88A C105G A115U — within 0.2 log units, -3.86
- G48A G88A U134C U144G — lower, ≤ -4.2
- G48A G136U — higher, -2.5
- G48A U55A — higher, -1.14
- G48A U55A C57G A66U G83C U90A C108U G124U — lower, ≤ -4.2
- G48A U55A G59C C85G — lower, ≤ -4.2
- G48A U77C C85U C93U C105U U145C — lower, ≤ -4.2
- G48A U77C C93U C105A — lower, ≤ -4.2
- G48A U78G G86A C87G C99U A142C U146G — lower, ≤ -4.2
- G48A U82G C93A G128U — lower, ≤ -4.2
- G48A U90G C93G A98U C116U G136A G143C — lower, ≤ -4.2
- G48C — higher, 0.0216
- G48C A49C A60C C96G A147U — lower, ≤ -4.2
- G48C A52C G74A G92C G94C C96U — lower, ≤ -4.2
- G48C A52G C57A G68U G100U — lower, ≤ -4.2
- G48C A52G U139C U148G — lower, ≤ -4.2
- G48C A52U G58C C118G U134A — lower, ≤ -4.2
- G48C A60C G86A G92U A138C G152A — lower, ≤ -4.2
- G48C A60U U82A A91C U127A U148C — lower, ≤ -4.2
- G48C A64G G70U G94U U144G C149A — lower, ≤ -4.2
- G48C A66G C114G G152C — lower, ≤ -4.2
- G48C A73C C87A C93G G126A — lower, ≤ -4.2
- G48C A89G A115G G141U — lower, ≤ -4.2
- G48C A91U C114U — lower, ≤ -4.2
- G48C A115G G133A — within 0.2 log units, -3.85
- G48C A120C — higher, -0.573
- G48C C51A C54A C63U G68A U77C G88A C96U A142G — lower, ≤ -4.2
- G48C C54A C108G C114U C125U U134A C149G — lower, ≤ -4.2
- G48C C54A G58C C75U U82C G141A U148G — lower, ≤ -4.2
- G48C C54A U56G G65A G83U C93A C123G — lower, ≤ -4.2
